Consider 53 molecules from PubChem BioAssay AID1347073 (National Center for Advancing Translational Sciences (NCATS), 2019).

The structures appear in SMILES notation. The whole screen tested about 45,000 compounds, of which about 200 (0.44%) were called active. Not shown: some 7% with an inconclusive outcome. The call rests on the fitted dose curve; in most records, active means well fitted activation curve with a large enough effect; inconclusive means small, poorly fitted or top-dose-only effect; inactive means no such curve, though single readings can be large or run the other way. This is one part of the list.

The assay is described as follows: qHTS of TDP-43 Inhibitors: NCGC Sytravon Library Screen. Further: 0% is about no effect; nearly all actives have a fitted effect of over 55% in size. The note with it: yeast TDP-43 toxicity rescue, BacTiter-Glo growth, 24 h; series mostly up to 46.1 µM; growth rescue (activation): at the top concentration. Summed up: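 TDP-43-expressing yeast, pregrown in raffinose, seeded at OD600 0.02 in galactose medium with compound for 24 hr at 30 deg C. Growth read by BacTiter-Glo luminescence, so rescue of toxicity appears as activation.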
Turning to `CN(Cc1ccccc1)C(=O)CSc1cc(=O)n(C)c2ccccc12`, the “growth rescue (activation)” value was inactive: 12.8%.
In the case of `Cc1cccc(C(=O)NCCc2ccc(S(N)(=O)=O)cc2)c1[N+](=O)[O-]` it was inactive: 11.4%.
In the case of `COc1ccc(C(=O)NC(C)Cn2nc(C)cc2C)cc1OC1CCN(C(C)=O)CC1` (stereo not drawn) it was inactive: 6.68%.
In the case of `CCOc1ccc(NC(=O)CCS(=O)(=O)c2ccc3c(c2)n(C)c(=O)c(=O)n3C)cc1` it was inactive: 11.1%; in that of `O=C(Nc1ccc(NS(=O)(=O)c2ccccc2)cc1)c1cccnc1`, inactive: 5.78%; in that of `Cc1cc(NC(=O)c2ccc(Cl)cc2)cc(C)c1OCC(=O)N1CCOCC1`, inactive: 8.56%.
Take `O=C(O)COc1ccc2c3c(c(=O)oc2c1)CCCC3`: the “growth rescue (activation)” value was inactive: -7.24%.
Under `Cc1cc(C[n+]2cc(Br)ccc2N)c2ncccc2c1` stands inactive: -6.17%.
`Cc1ccc(SCc2cn3c(C)cc(C)nc3n2)cc1`: the “growth rescue (activation)” value is inactive: 13.1%.
As to `CCCCN(CCCC)CCNC(=O)CSCc1ccc(C)cc1`, the “growth rescue (activation)” value is inactive: -13.7%.
Under `O=C(CSc1cn[nH]n1)Nc1ccccc1F` stands inactive: -20.4%; under `CC(C)OP(=O)(OC(C)C)C(NC(=O)c1ccccc1)C(N)=O` (stereo not drawn), inactive: -12.2%; under `Cc1ccc(NS(=O)(=O)c2ccc3[nH]c(=O)[nH]c3c2)c(C)c1`, inactive: 11.2%.
With `O=C1CSC(c2ccc(F)cc2)N1c1ccccc1F` (stereo not drawn), the “growth rescue (activation)” value was inactive: -3.86%.
Under `Cc1ccc2c(c1)C1CN(C)CCC1N2C(=O)c1ccccc1NS(=O)(=O)c1ccc(F)cc1C` (stereo not drawn) stands inactive: -20.7%; under `Cc1ccc[n+](-c2nc([O-])sc2/C=N/Nc2ccc([N+](=O)[O-])cc2)c1`, inactive: 8.78%.
In the case of `CCC(C)(C)n1nnnc1CN(Cc1cc2cc(OC)c(OC)cc2[nH]c1=O)C1CCCC1` it was inactive: -4.04%.
Take `COc1ccc(CCN2CC(C(=O)NCc3c(C)n[nH]c3C)CCC2=O)cc1` (stereo not drawn): the “growth rescue (activation)” value was inactive: -0.59%.
In the case of `O=C(c1c(F)cccc1Cl)N1CCN(c2ccccn2)CC1` it was inactive: -1.02%; in that of `CC(=O)NC(c1cccc(F)c1)c1nc(-c2ccoc2)cs1` (stereo not drawn), inactive: -1.82%.
Regarding `COc1ccccc1Nc1nc(C)c(C(=O)Nc2ccccc2)s1`, the “growth rescue (activation)” value was inactive: 18.9%.
In the case of `CCOC(=O)CCC(NC(=O)CCCCCCCC(=O)NC(CCC(=O)OCC)C(=O)OCC)C(=O)OCC` (stereo not drawn) it was inactive: 13.7%; in that of `COc1ccc(CCNCC(=O)Nc2ccc(C(=O)N3CCCCC3)cc2)cc1`, inactive: -5.33%.
For `O=C(Nc1ccc2oc(-c3cccnc3)nc2c1)c1ccc2c(c1)OCCO2`, the “growth rescue (activation)” value is inactive: 3.31%.
Under `Cc1nnsc1Sc1ccccn1` stands inactive: 13.3%; under `COc1ccc(NC(=O)c2cc(-c3cccc(OC)c3)on2)cc1`, inactive: -20.8%; under `CCN(CC)C(=O)COc1ccc2c3c(c(=O)oc2c1)CCCC3`, inactive: 9.73%.
`O=C(CSc1nnnn1-c1ccccc1)Nc1ccc(Cl)cn1`: the “growth rescue (activation)” value is inactive: -8.75%.
As for `CCOC(=O)/C(C#N)=C/C1=C(N2CCOCC2)CC(C)(C)OC1`, the “growth rescue (activation)” value was inactive: 15.5%.
Under `COc1ccc(C(=O)O/N=C(\N)c2ccccc2)cc1` stands inactive: -62.4%; under `Cc1ccc(-c2cc(C(=O)Nc3cc(C(=O)O)ccc3C)c3ccccc3n2)cc1`, inactive: -2.72%; under `CN1CCN(c2nc3ccccn3c(=O)c2/C=C(\C#N)S(=O)(=O)c2ccc(Cl)cc2)CC1`, inactive: -2.84%.
Under `O=C(COC(=O)c1ccc(O)cc1)Nc1ccc2c(c1)OCCO2` stands inactive: -14.1%; under `O=C(N/N=C/c1ccco1)c1cc(=O)[nH]c2ccccc12`, inactive: 5.72%.
In the case of `CN1C=CC=C/C1=C1\SC(=S)N(CC(=O)O)C1=O` it was inactive: 4.97%; in that of `Cc1ccc(S(=O)(=O)N2CCN(C(=O)C3CCCC3)CC2)cc1C`, inactive: 23.1%; in that of `COc1cc(OC)cc(C(=O)Nc2ccc(C(=O)Nc3ccccc3OC)cc2)c1`, inactive: -2.9%.
Consider `CC1CCN(S(=O)(=O)c2ccc3[nH]c(=O)[nH]c3c2)CC1`, for which the “growth rescue (activation)” value is inactive: 11.3%.
In the case of `COc1ccc(NC(=O)c2cc(=O)[nH]c(=O)[nH]2)cc1S(=O)(=O)Nc1ccccc1Cl` it was inactive: 15.6%; in that of `C=CCOC(=O)c1c(C)nc2cc3c(cc2c1C)OCO3`, inactive: 10.4%; in that of `O=C(CN1C(=O)C(=O)N(Cc2ccccc2)C1=O)Nc1cc(Cl)cc(Cl)c1`, inactive: -17.6%.
In the case of `COc1ccc(C(N)=S)c(OC)c1` it was inactive: 3.02%.
On to `O=Cc1cn(CC(=O)N2CCCCC2)c2ccccc12`, for which the “growth rescue (activation)” value is inactive: 15.1%.
Under `O=C(COC(=O)c1cccnc1Cl)NCc1cccs1` stands inactive: -7.13%; under `Cc1ccccc1/C=N/Nc1nc2ccccc2[nH]1`, inactive: -0.552%.
In the case of `Cc1cc(C)c(NC(=O)COC(=O)C23CC4CC(CC(O)(C4)C2)C3)c(Cl)c1` it was inactive: 9.67%; in that of `Cn1c(=O)n(C)c2cc(NS(=O)(=O)c3ccc(Cl)s3)ccc21`, inactive: -12.5%; in that of `COc1ccc(F)cc1-c1cc(C(=O)N2CCc3ccccc3C2)[nH]n1`, inactive: 16%.
As to `CCc1ccc(NC(=O)CCNC(=O)Cn2ccc3ccccc3c2=O)cc1`, the “growth rescue (activation)” value is inactive: 7.88%.
Turning to `Cc1ccccc1NC(=O)Cn1cc(C(=O)C2CC2)c2ccccc21`, the “growth rescue (activation)” value was inactive: 1.89%.
Under `O=C(CC(c1ccccc1)c1cc(Cl)ccc1O)N1CCCC1` (stereo not drawn) stands inactive: -16.9%; under `O=C1CCCC2=C1C(c1ccncc1)c1c(nc(SCc3ccccc3)[nH]c1=O)N2` (stereo not drawn), inactive: -6.48%.
Under `O=C(Cc1ccccc1[N+](=O)[O-])Nc1ccc2c(c1)OCCO2` stands inactive: 10.2%.
